Assay results taken from PMC4336329 (PLoS ONE, 2015).
Screen size: about 310,000 compounds; about 14,000 (4.5%) showed an effect of 50% or more. The effect is printed as a negative number. The list shows a part of the results.

molecular target: human ether-à-go-go-related gene (hERG) potassium channel (human, UniProt Q12809); test: primary screen, population patch clamp on CHO cells stably expressing hERG
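Further: peak tail current of the secondary pulse compared with the same well before compound.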

Chain of human ether-à-go-go-related gene (hERG) potassium channel (Q12809 whole entry, looked up): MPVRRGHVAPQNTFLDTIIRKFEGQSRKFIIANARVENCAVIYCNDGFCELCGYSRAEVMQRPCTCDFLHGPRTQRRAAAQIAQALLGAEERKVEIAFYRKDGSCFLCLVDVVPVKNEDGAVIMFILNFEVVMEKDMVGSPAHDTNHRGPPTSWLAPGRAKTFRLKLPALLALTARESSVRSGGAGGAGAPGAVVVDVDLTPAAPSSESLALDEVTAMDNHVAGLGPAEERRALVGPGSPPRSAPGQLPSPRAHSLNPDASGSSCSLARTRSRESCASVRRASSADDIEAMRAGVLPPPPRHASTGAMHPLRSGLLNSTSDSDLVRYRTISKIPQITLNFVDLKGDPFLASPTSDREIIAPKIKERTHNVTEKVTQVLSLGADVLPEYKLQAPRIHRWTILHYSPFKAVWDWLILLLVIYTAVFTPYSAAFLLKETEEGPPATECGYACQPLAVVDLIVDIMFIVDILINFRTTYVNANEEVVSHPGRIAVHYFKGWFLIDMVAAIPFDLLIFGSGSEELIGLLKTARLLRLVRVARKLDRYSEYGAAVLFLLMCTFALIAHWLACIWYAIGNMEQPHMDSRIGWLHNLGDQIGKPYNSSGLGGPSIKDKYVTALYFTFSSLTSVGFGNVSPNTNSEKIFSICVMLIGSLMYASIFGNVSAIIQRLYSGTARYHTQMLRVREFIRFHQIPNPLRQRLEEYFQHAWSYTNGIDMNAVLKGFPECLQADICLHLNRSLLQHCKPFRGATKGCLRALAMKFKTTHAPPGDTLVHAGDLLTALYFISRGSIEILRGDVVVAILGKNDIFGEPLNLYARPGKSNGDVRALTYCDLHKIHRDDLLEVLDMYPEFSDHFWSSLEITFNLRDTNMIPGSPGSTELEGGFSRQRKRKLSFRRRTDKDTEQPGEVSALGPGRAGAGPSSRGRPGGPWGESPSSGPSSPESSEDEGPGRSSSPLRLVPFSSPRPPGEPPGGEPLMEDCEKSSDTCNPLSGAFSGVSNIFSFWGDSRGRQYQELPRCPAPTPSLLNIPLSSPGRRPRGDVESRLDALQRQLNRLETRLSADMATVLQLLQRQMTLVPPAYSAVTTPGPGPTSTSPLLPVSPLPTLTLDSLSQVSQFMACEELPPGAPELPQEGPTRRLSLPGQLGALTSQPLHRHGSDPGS

Row | SMILES | hERG current change (%, negative = inhibition) at 10uM
1 | CCOc1cc(CO)cc(Br)c1OCC(=O)O | -6.91%
2 | Cn1nc(C(C)(C)C)c([N+](=O)[O-])c1C(=O)NC(C)(C)C | 8.48%
3 | O=C(Nc1c(Cl)cc(Cl)cc1C(=O)NCc1cccnc1)c1ccc(Cl)cc1Cl | -4.95%
4 | O=C(NC(NC(=O)c1c(F)cccc1F)c1ccc([N+](=O)[O-])cc1)c1c(F)cccc1F | -43.8%
5 | C=CCSc1nnc(-c2sc(-c3ccccc3)nc2C)n1C | -33.6%
6 | CC(=O)Nc1ccc(CN2CCCC(C(=O)c3cccc(C(F)(F)F)c3)C2)cc1 (centres unmarked) | -20.7%
7 | COc1ccc(OC)c(NC(=O)C2CCCN2C(=O)C2CCC(C)CC2)c1 (centres unmarked) | -2.29%
8 | CCCCCCCCCS(=O)(=O)Nc1cc(C)ccn1 | 2.47%
9 | COC(=O)CCSCC(=O)N1N=C(c2ccc(OC)cc2)CC1c1cccc(OC)c1OC (centres unmarked) | 9.13%
10 | Cc1ccc(S(=O)(=O)N2CCCC2CNC(=O)C(=O)NCCN2CCOCC2)cc1 (centres unmarked) | 16.5%
11 | CC(C)OP(C)(=O)CN1CCN(CP(C)(=O)OC(C)C)CC1 (centres unmarked) | 10.8%
12 | C/C(=N\NC(=O)c1ccco1)c1cc2ccccc2o1 | -9.09%
13 | CCOC(=O)/C=c1\s/c(=C\c2ccc(C(F)(F)F)cc2)c(=O)n1CC(=O)NCc1ccco1 | 5.47%
14 | O=C(Nc1ccc(C(=O)N2CCCC2)cc1)Nc1ccc(Cl)cc1Cl | 13.2%
15 | O=C(CSc1nncs1)NC1CCCCCCC1 | 0.331%
16 | O=[N+]([O-])c1ccc(/C([O-])=C(/C(=S)NCc2ccco2)[n+]2ccccc2)cc1 | -30.9%
17 | Cl.Clc1ccc(OCCOCCN2CCc3ccccc3C2)c(Cl)c1 | -69.8%
18 | COC(=O)c1ccc(N(C(=O)CNC(=O)c2ccco2)C(C(=O)NC2CCCC2)c2ccco2)cc1 (centres unmarked) | 2.49%
19 | Cc1ccccc1C(=O)N1CCC(C(=O)Oc2ccc(C#N)cc2)CC1 | -24.8%
20 | Cc1ccc(-n2nc(C(=O)N/N=C/c3cccc(C(F)(F)F)c3)c3ccccc3c2=O)cc1C | 10.8%
21 | Fc1ccc(Cn2nnnc2C(c2cccs2)N2CCCCCC2)cc1 (centres unmarked) | -11.2%
22 | O=S(=O)(Nc1ccc2nc(N3CCOCC3)sc2c1)c1ccc(Cl)cc1 | -29.4%

Row | SMILES | hERG current change (%, negative = inhibition) at 10uM
23 | COc1cc(OC)nc(NC(=S)NC(=O)c2ccccc2)n1 | 23.1%
24 | Cc1cccc(C)c1NC(=O)CCS(=O)(=O)c1cccc2nonc12 | 15.7%
25 | CC(=O)N(C)c1ccc(NC(=O)COc2ccc(Br)cc2C)cc1 | -29.6%
26 | CC(=O)Nc1c(Cl)n(C(C)=O)c2ccccc12 | 6.5%
27 | Cc1nc(NC(=O)/C=C/c2ccccc2)sc1C(=O)N(C)C | -6.44%
28 | Cc1nc2cc(CO)ccc2n1C | -8.19%
29 | [O-][n+]1onc2c1CCc1nnc(-c3ccccc3)cc1-2 | 7.6%
30 | CC1=C(C(=O)Nc2cc(C)ccn2)C(c2cnn(C)c2)C2=C(CC(c3ccccc3)CC2=O)N1 (centres unmarked) | -22.3%
31 | O=C(CCCCCn1c(=S)[nH]c2ccc(N3CCOCC3)cc2c1=O)NCc1ccccc1Cl | 4.65%
32 | CCc1c(C)nc(SCC(=O)Nc2cccc(Br)c2)[nH]c1=O | 16.3%
33 | O=C(Nc1ccccc1)c1ccc2nc(-c3ccco3)c(-c3ccco3)nc2c1 | 4.03%
34 | O=C(CSc1nc2ccccc2c(=O)n1CCCO)NCc1ccccc1 | -41.5%
35 | Oc1ccccc1-c1nnc(-c2ccc(C(F)(F)F)cc2)o1 | 14.5%
36 | O=C(N/N=C/c1cc2c(cc1Cl)OCO2)c1cccc(Br)c1 | -2.95%
37 | Cc1nnc(-c2ccc(Oc3ccc(Br)cc3)c([N+](=O)[O-])c2)o1 | 3.38%
38 | Cc1cc(C)cc(OCCCn2ccnc2)c1 | 13.3%
39 | CCOc1ccc2[nH]c3c(NCC(C)C)ncnc3c2c1 | -8.65%
40 | CCOC(=O)c1[nH]c2ccccc2c1NC(=S)Nc1ccccc1C | 5.67%
41 | Cc1ccc(OCC(O)CNC(C)c2ccccc2)cc1C.Cl (centres unmarked) | -20.7%
42 | CC1(C)Cc2c(sc3nnn(Cc4ccc(Cl)cc4)c(=O)c23)CO1 | 15.4%
43 | CC(C)c1cccc(C(C)C)c1OCCn1ccnc1 | -16%
44 | CN(C)CCCn1c(=O)n(Cc2ccco2)c(=O)c2c3c(sc21)CCCCC3 | -71.1%
